Test results published in article PMC11876325.
Residue numbers refer to the chain shown, from its start. Results are given in words; binding and its absence hold for the method and conditions named. Some entries that bind do so weakly or less than the wild type.

Protein sequences, listed by entry. Tags and fused reporters are not part of them.
UniProt P25454: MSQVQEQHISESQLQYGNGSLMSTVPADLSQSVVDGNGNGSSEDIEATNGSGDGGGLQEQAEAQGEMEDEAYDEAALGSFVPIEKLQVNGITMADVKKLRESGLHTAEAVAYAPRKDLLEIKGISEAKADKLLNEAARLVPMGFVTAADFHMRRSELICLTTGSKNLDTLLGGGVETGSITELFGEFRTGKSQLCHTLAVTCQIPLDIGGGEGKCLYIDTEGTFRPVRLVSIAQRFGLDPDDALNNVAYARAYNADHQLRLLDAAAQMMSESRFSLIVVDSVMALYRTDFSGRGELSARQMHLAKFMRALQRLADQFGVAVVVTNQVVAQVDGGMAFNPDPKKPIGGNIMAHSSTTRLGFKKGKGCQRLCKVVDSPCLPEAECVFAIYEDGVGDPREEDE

T1: Psy3-L12A (pGBD psy3-L12A) (S. cerevisiae) (UniProt Q12318)
T1 sequence: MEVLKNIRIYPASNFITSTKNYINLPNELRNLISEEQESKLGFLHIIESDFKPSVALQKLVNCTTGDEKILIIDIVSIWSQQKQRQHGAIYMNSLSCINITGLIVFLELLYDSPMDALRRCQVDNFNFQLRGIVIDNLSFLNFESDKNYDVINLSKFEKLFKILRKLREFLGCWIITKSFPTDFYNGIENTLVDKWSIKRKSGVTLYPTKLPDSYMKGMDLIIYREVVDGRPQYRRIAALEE

T2: Psy3-KRK (pGBD psy3-K199A, R200A, K201A) (S. cerevisiae) (UniProt Q12318)
T2 sequence: T1 sequence with A12L, K199A, R200A, K201A

T3: Rad57 (pGBD Rad57) (S. cerevisiae) (UniProt P25301)
T3 sequence: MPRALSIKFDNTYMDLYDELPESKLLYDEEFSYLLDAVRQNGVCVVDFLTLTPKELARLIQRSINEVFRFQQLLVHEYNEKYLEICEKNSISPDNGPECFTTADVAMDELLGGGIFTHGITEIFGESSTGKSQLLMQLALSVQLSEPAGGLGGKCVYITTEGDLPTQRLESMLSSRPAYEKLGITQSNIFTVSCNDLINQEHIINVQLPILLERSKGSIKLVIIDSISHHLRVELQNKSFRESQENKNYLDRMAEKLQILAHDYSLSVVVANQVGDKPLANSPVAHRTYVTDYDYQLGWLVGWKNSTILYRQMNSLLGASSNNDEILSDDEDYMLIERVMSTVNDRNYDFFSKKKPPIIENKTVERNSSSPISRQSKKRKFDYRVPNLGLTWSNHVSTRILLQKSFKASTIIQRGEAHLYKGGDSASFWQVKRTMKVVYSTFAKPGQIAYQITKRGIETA

T4: Psy3-Y10A (pGBD psy3-Y10A) (S. cerevisiae) (UniProt Q12318)
T4 sequence: T1 sequence with Y10A, A12L

B1: Orc6 (pGAD ORC6) (protein, UniProt P38826 1-435)
chain: MSMQQVQHCVAEVLRLDPQEKPDWSSGYLKKLTNATSILYNTSLNKVMLKQDEEVARCHICAYIASQKMNEKHMPDLCYYIDSIPLEPKKAKHLMNLFRQSLSNSSPMKQFAWTPSPKKNKRSPVKNGGRFTSSDPKELRNQLFGTPTKVRKSQNNDSFVIPELPPMQTNESPSITRRKLAFEEDEDEDEEEPGNDGLSLKSHSNKSITGTRNVDSDEYENHESDPTSEEEPLGVQESRSGRTKQNKAVGKPQSELKTAKALRKRGRIPNSLLVKKYCKMTTEEIIRLCNDFELPREVAYKIVDEYNINASRLVCPWQLVCGLVLNCTFIVFNERRRKDPRIDHFIVSKMCSLMLTSKVDDVIECVKLVKELIIGEKWFRDLQIRYDDFDGIRYDEIIFRKLGSMLQTTNILVTDDQYNIWKKRIEMDLALTEPL
B2: Mcm4 (pGAD Mcm4) (protein, UniProt P30665 1-933)
chain: MSQQSSSPTKEDNNSSSPVVPNPDSVPPQLSSPALFYSSSSSQGDIYGRNNSQNLSQGEGNIRAAIGSSPLNFPSSSQRQNSDVFQSQGRQGRIRSSASASGRSRYHSDLRSDRALPTSSSSLGRNGQNRVHMRRNDIHTSDLSSPRRIVDFDTRSGVNTLDTSSSSAPPSEASEPLRIIWGTNVSIQECTTNFRNFLMSFKYKFRKILDEREEFINNTTDEELYYIKQLNEMRELGTSNLNLDARNLLAYKQTEDLYHQLLNYPQEVISIMDQTIKDCMVSLIVDNNLDYDLDEIETKFYKVRPYNVGSCKGMRELNPNDIDKLINLKGLVLRSTPVIPDMKVAFFKCNVCDHTMAVEIDRGVIQEPARCERIDCNEPNSMSLIHNRCSFADKQVIKLQETPDFVPDGQTPHSISLCVYDELVDSCRAGDRIEVTGTFRSIPIRANSRQRVLKSLYKTYVDVVHVKKVSDKRLDVDTSTIEQELMQNKVDHNEVEEVRQITDQDLAKIREVAAREDLYSLLARSIAPSIYELEDVKKGILLQLFGGTNKTFTKGGRYRGDINILLCGDPSTSKSQILQYVHKITPRGVYTSGKGSSAVGLTAYITRDVDTKQLVLESGALVLSDGGVCCIDEFDKMSDSTRSVLHEVMEQQTISIAKAGIITTLNARSSILASANPIGSRYNPNLPVTENIDLPPPLLSRFDLVYLVLDKVDEKNDRELAKHLTNLYLEDKPEHISQDDVLPVEFLTMYISYAKEHIHPIITEAAKTELVRAYVGMRKMGDDSRSDEKRITATTRQLESMIRLAEAHAKMKLKNVVELEDVQEAVRLIRSAIKDYATDPKTGKIDMNLVQTGKSVIQRKLQEDLSREIMNVLKDQASDSMSFNELIKQINEHSQDRVESSDIQEALSRLQQEDKVIVLGEGVRRSVRLNNRV

Assays:
Assay in all cases: two-hybrid; GAL4 DNA-binding domain (pGBD) and GAL4 activation domain (pGAD) fusions co-transformed into PJ69-4α (also its rad51∆, rad55∆, csm2∆, shu1∆ and shu2∆ derivatives); growth on SC-L-W-H, 2-3 days, 30 °C
[1] = target: T1, Psy3-L12A (pGBD psy3-L12A) (S. cerevisiae)
[2] = target: Rad51 (two-hybrid fusion) (S. cerevisiae) (UniProt P25454)
[3] = target: T2, Psy3-KRK (pGBD psy3-K199A, R200A, K201A) (S. cerevisiae)
[4] = target: T3, Rad57 (pGBD Rad57) (S. cerevisiae)
[5] = target: T4, Psy3-Y10A (pGBD psy3-Y10A) (S. cerevisiae)

Binder | binding [1] | binding [2] | binding [3] | binding [4] | binding [5]
B1 | no binding | no binding | binds | no binding | no binding
B2 | no binding | – | binds | no binding | no binding
